This sample is rich in variants without activity. Bounds are passed on as bounds.

Data on 167 variants can be found in the RNAGym collection of RNA variant scans (doi:10.1101/gad.245936.114).

Sequences and labels used below:
B1: tRNA (parent)
chain: CUCUCGGUAGCCAAGUUGGUUUAAGGCGCAAGACUUUAAUUUAUCACUACGAAAUCUUGAGAUCGGGCGUUCGACUCGCCCCCGGGAGAUUUUUUCCUCGAGCAA

The variants in the series derive from B1. Put plainly: nonsense suppression (GFP-seq) (ratio to wild type); higher = more function; SUP4oc tRNA, yeast GFP reporter sort-seq. Summed up:
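Sorted GFP/RFP bins of yeast were each Illumina-sequenced with a phred ≥30 cutoff; the cells held a genome-integrated ochre-suppressor tRNA variant from a library with ~3% random mutations, a galactose-driven GFP ochre reporter, and RFP. Culture was in raffinose/galactose medium containing 80 mg/L adenine. Nonsense suppression, termed GFPSEQ, is the median GFP/RFP of the bins weighted by each variant's estimated cell share per bin, relative to the unmutated parent tRNA, for variants reaching ≥100 reads and ≥30 cells.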
As for C27U A30U G59C C64A, the nonsense suppression is ≤ 0.026.

For U17C C29G C34A G61A G65A, the nonsense suppression was ≤ 0.026.

For the variant U16A G66U C83A, the nonsense suppression is ≤ 0.026.

For the variant G7U C11G A30G A62C G67A, the nonsense suppression was ≤ 0.026.

Regarding G19A A31G A54G G67A U76C C80A, the nonsense suppression was ≤ 0.026.

For the variant A30U U76C C79U, the nonsense suppression was ≤ 0.026.

Turning to A13C U70C, the nonsense suppression was ≤ 0.026.

With U2C G10C C72G G84U A89U, the nonsense suppression is ≤ 0.026.

In the case of C1A A9C G18A C34U G61C G65A, the nonsense suppression is ≤ 0.026.

A31U U63G G86A: the nonsense suppression was ≤ 0.026.

Consider A14U C56G G86C, for which the nonsense suppression is ≤ 0.026.

Take G25U C77A: the nonsense suppression was ≤ 0.026.

Consider A30U U55G A62C A74C C75A, for which the nonsense suppression is ≤ 0.026.

With C34U A74C C79A, the nonsense suppression is ≤ 0.026.

Consider A14G G18U G25A, for which the nonsense suppression is ≤ 0.026.

C5U U20A U21C: the nonsense suppression was ≤ 0.026.

With G69C U71C U76G, the nonsense suppression is ≤ 0.026.

Regarding C1G G6U A14U C29G, the nonsense suppression was ≤ 0.026.

As for A14U C56U C80G G88C, the nonsense suppression is ≤ 0.026.

Take C3A C29A A54U: the nonsense suppression was ≤ 0.026.

Take A24U A30C C83A: the nonsense suppression was ≤ 0.026.

Take U35A A60U G61A G73A C79U: the nonsense suppression was ≤ 0.026.

Consider U8C G78U C81A A87C, for which the nonsense suppression was ≤ 0.026.

Regarding C12U U16G, the nonsense suppression stood at 0.785.

With C34U G59U, the nonsense suppression is ≤ 0.026.

As for U8C A60C A87G, the nonsense suppression was ≤ 0.026.

For C3G U71C, the nonsense suppression is ≤ 0.026.

For the variant C5G A14U G69C, the nonsense suppression is ≤ 0.026.

Consider C5G G32U, for which the nonsense suppression was ≤ 0.026.

On to G10U G15A G18A U71G A74U, for which the nonsense suppression was ≤ 0.026.

For the variant G15U U57G, the nonsense suppression is ≤ 0.026.

In the case of A13U A14G, the nonsense suppression was ≤ 0.026.

For A33U U55C A74G, the nonsense suppression was ≤ 0.026.

Take U17A G26U: the nonsense suppression was ≤ 0.026.

Regarding G26U C34U, the nonsense suppression is ≤ 0.026.

For the variant C12A A54G, the nonsense suppression is ≤ 0.026.

For G19U A24G G73A, the nonsense suppression was ≤ 0.026.

For the variant G69U C77G, the nonsense suppression was ≤ 0.026.

Regarding C11G G65C C68G, the nonsense suppression is ≤ 0.026.

As to U22G U76G, the nonsense suppression is ≤ 0.026.

Consider C5U A24U C27A U57C G86C, for which the nonsense suppression is ≤ 0.026.

With C34A A87G, the nonsense suppression is ≤ 0.026.

With U57C G66C G67A, the nonsense suppression is ≤ 0.026.

In the case of G6A G7U A54C, the nonsense suppression is ≤ 0.026.

In the case of A30U U35C, the nonsense suppression is ≤ 0.026.

As for G19C A31C C83A, the nonsense suppression was ≤ 0.026.

Turning to C3G G84A, the nonsense suppression is ≤ 0.026.

Take U17C C64A C72A: the nonsense suppression was ≤ 0.026.

On to G15A U57C, for which the nonsense suppression was ≤ 0.026.

With C1G G19C A87C, the nonsense suppression is ≤ 0.026.

For the variant A30C C72G, the nonsense suppression was ≤ 0.026.

Consider A60U A62G, for which the nonsense suppression was 0.112.

As to U20C U22A A60C, the nonsense suppression was ≤ 0.026.

Turning to G66U G69A G84C, the nonsense suppression is ≤ 0.026.

As for U8C G10U A13G G59A G67U A89G, the nonsense suppression was ≤ 0.026.

For A9G U63C G69A, the nonsense suppression was ≤ 0.026.

Consider C11U A13U A14G G66C, for which the nonsense suppression is ≤ 0.026.

On to A24U A54G A62U C75A C77G G78U G86A, for which the nonsense suppression is ≤ 0.026.

For A9G U17C G78U, the nonsense suppression is ≤ 0.026.

On to U17G U21G A33U, for which the nonsense suppression was ≤ 0.026.

With U8A A62C, the nonsense suppression was ≤ 0.026.

Turning to C29A U55G C75G, the nonsense suppression was ≤ 0.026.

Turning to A31U G78A, the nonsense suppression was ≤ 0.026.

Take C1A A13C G69C C75A: the nonsense suppression was ≤ 0.026.

With U63G, the nonsense suppression is 1.14.

Consider G6C G10C, for which the nonsense suppression is ≤ 0.026.

In the case of C5U G86A, the nonsense suppression is ≤ 0.026.

Regarding G18C G19A G28C, the nonsense suppression is ≤ 0.026.

With G28U C29A C34U C77G, the nonsense suppression is ≤ 0.026.

In the case of C11A C77G, the nonsense suppression was ≤ 0.026.

Regarding A14U C29A, the nonsense suppression was ≤ 0.026.

Turning to A9G G32A A54G G61U G73U, the nonsense suppression was ≤ 0.026.

With C1G U22A, the nonsense suppression was ≤ 0.026.

Consider U35G U58G G59C G73A, for which the nonsense suppression was ≤ 0.026.

Take G59U G61C: the nonsense suppression is ≤ 0.026.

A9U C12A U16A G73C G84C: the nonsense suppression was ≤ 0.026.

Take U8G C11U: the nonsense suppression is ≤ 0.026.

Regarding C12A G25C A87U, the nonsense suppression was ≤ 0.026.

On to A24U G84U, for which the nonsense suppression was ≤ 0.026.

As for C12U U22G, the nonsense suppression stood at 0.745.

For the variant G6C C72U, the nonsense suppression was ≤ 0.026.

On to A9C A74U C77G G85C, for which the nonsense suppression was ≤ 0.026.

For the variant G18C G32C G59A U71A, the nonsense suppression is ≤ 0.026.

Regarding G19C G86C, the nonsense suppression was ≤ 0.026.

In the case of U20C U55A, the nonsense suppression is ≤ 0.026.

As to G6C U21A C34U G78C, the nonsense suppression was ≤ 0.026.

As for G7A U17A C29A C72A G85C, the nonsense suppression is ≤ 0.026.

With C12U G66C G88C, the nonsense suppression is ≤ 0.026.

Consider G59U C79U, for which the nonsense suppression was ≤ 0.026.

As for A9U A30C, the nonsense suppression is ≤ 0.026.

For the variant U4G C81A G86A A87G, the nonsense suppression is ≤ 0.026.

On to U8A G67A, for which the nonsense suppression was ≤ 0.026.

With C5G C56A, the nonsense suppression is ≤ 0.026.

G19U A24G: the nonsense suppression was ≤ 0.026.

For C11U A13U G18A C56U, the nonsense suppression was ≤ 0.026.

On to C12G U17G U70A, for which the nonsense suppression is ≤ 0.026.

For the variant G6U A23U G67C, the nonsense suppression was ≤ 0.026.

On to U57G U58A G65A, for which the nonsense suppression is ≤ 0.026.

As for G32C G61U, the nonsense suppression is ≤ 0.026.

Regarding C1U G15U C56A, the nonsense suppression is ≤ 0.026.

On to C5U A9U, for which the nonsense suppression was ≤ 0.026.

U55C C68G: the nonsense suppression is ≤ 0.026.

For C1G C12G A24G G26A, the nonsense suppression was ≤ 0.026.

Turning to A31G C81A, the nonsense suppression was ≤ 0.026.

Regarding C3G C27G G88U, the nonsense suppression is ≤ 0.026.

Turning to U21G G69A, the nonsense suppression was ≤ 0.026.

Turning to U21A A30G U55G, the nonsense suppression is ≤ 0.026.

As for G28U U71G C80A G88C, the nonsense suppression is ≤ 0.026.

For the variant A14G C72G A74G, the nonsense suppression was ≤ 0.026.

As for U16C G18U A24U C79U, the nonsense suppression was ≤ 0.026.

With A9G G32U, the nonsense suppression is ≤ 0.026.

Regarding G25U C56A, the nonsense suppression is ≤ 0.026.

For the variant U4C C64G U71G G78A, the nonsense suppression is ≤ 0.026.

Consider U17G U63A C75A G85A, for which the nonsense suppression came out at 1.08.

As for C1A U2G, the nonsense suppression was ≤ 0.026.

Consider U35C G66A, for which the nonsense suppression was ≤ 0.026.

Take C12A A13C G18U U63A: the nonsense suppression was ≤ 0.026.

In the case of A33G A54G A62U U63C U70G G73A, the nonsense suppression was ≤ 0.026.

With U17G G88U, the nonsense suppression was ≤ 0.026.

In the case of U17G G88A, the nonsense suppression was ≤ 0.026.

Regarding U8C U55A, the nonsense suppression was ≤ 0.026.

In the case of C11A U58G C77U, the nonsense suppression was ≤ 0.026.

C11G G15A A23G A87G: the nonsense suppression is ≤ 0.026.

U8G G26A C56U C64G G66U G78U A89U: the nonsense suppression is ≤ 0.026.

In the case of G67U C80A, the nonsense suppression is ≤ 0.026.

Turning to U4C G85A, the nonsense suppression is 0.625.

Regarding C29U C68G U76C, the nonsense suppression was ≤ 0.026.

Regarding A9U C27U U35G C77A, the nonsense suppression was ≤ 0.026.

Consider C72A C81A C83A, for which the nonsense suppression was ≤ 0.026.

Turning to G7C A14G U22A A24U G85C, the nonsense suppression is ≤ 0.026.

As to C1G G15U, the nonsense suppression was ≤ 0.026.

As to U17A A62U U76G, the nonsense suppression is ≤ 0.026.

As for G7C U76C A89C, the nonsense suppression is ≤ 0.026.

Take U55A U71A A87U: the nonsense suppression was ≤ 0.026.

Consider C29U C68A U71A, for which the nonsense suppression is ≤ 0.026.

For A23G G59U G73U, the nonsense suppression was ≤ 0.026.

As for A14C A30C U35C, the nonsense suppression is ≤ 0.026.

On to G28A U63A C68G U70A G85C, for which the nonsense suppression is ≤ 0.026.

For the variant U2G G10C G15U C29U A31U, the nonsense suppression is ≤ 0.026.

For the variant A23C C83U, the nonsense suppression was ≤ 0.026.

Consider C5G A54U, for which the nonsense suppression was ≤ 0.026.

As for A62U C79A, the nonsense suppression was ≤ 0.026.

With A14G U35G A87U, the nonsense suppression was ≤ 0.026.

Regarding A14G A24C A62U, the nonsense suppression is ≤ 0.026.

As to G25A C68A, the nonsense suppression is ≤ 0.026.

As for G7U U8A U20G C83G, the nonsense suppression is ≤ 0.026.

Turning to G6C U22G C82U, the nonsense suppression is ≤ 0.026.

For the variant C1U A9U A24G A33G U57G G59C, the nonsense suppression is ≤ 0.026.

As to C12A C29U, the nonsense suppression is ≤ 0.026.

For G18U A33U G69C, the nonsense suppression was ≤ 0.026.

As for C1G G32A, the nonsense suppression is ≤ 0.026.

In the case of U57G C79U, the nonsense suppression is ≤ 0.026.

For U22A C56U G66A G67C G85C, the nonsense suppression is ≤ 0.026.

Consider U55G G59A, for which the nonsense suppression was ≤ 0.026.

Take A13C G15C: the nonsense suppression is ≤ 0.026.

On to C77A, for which the nonsense suppression was ≤ 0.026.

For A14C U20A C79A, the nonsense suppression was ≤ 0.026.

Regarding A23U C27G A60C U63A, the nonsense suppression was ≤ 0.026.

Take A33C U63G: the nonsense suppression is ≤ 0.026.

As to G19U U63A, the nonsense suppression was ≤ 0.026.

A24U U58C G85A: the nonsense suppression is ≤ 0.026.

Take C3A A24G A31C U76A: the nonsense suppression is ≤ 0.026.

In the case of C3G C27U, the nonsense suppression is ≤ 0.026.

On to A30U G66C, for which the nonsense suppression was ≤ 0.026.

As to A14C G19C G78U, the nonsense suppression was ≤ 0.026.

Consider G10A G32U U55A, for which the nonsense suppression was ≤ 0.026.

Regarding A54C G69C, the nonsense suppression was ≤ 0.026.
